Reference: PubChem BioAssay (Tox21)
“And” between values parts separate entries of the source, which are not always exact repeats. Identical values can stand only once. The shares of active, inactive and inconclusive entries below differ from those in the screen. For part of these data: Potencies beside an inconclusive call are fits to weak or partial responses and may not hold up. A structure can be active in one record and inactive in another. The source made the active and inactive calls. Unless noted, the call rests on the fitted dose curve; in most records, active means well fitted curve in the direction sought with a large enough effect in the repeat runs; inconclusive means weak or mixed curves; inactive means no such curve, though single readings can be large; an effect the other way counts as inactive or inconclusive.

Key:
[1] = biological target: Aryl hydrocarbon receptor (Homo sapiens) (UniProt P35869); assay: qHTS assay to identify small molecule that activate the aryl hydrocarbon receptor (AhR) signaling pathway (AID 743085); further: nearly all actives have a fitted effect of over 15% in size; further: potency means the concentration at half of the fitted maximal effect
Outline: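 Measured in HG2L7.5c1 cells: CellTiter-Fluor signal (30 min incubation, 37C) for viability, then luciferase luminescence (30 min, room temperature). Compound contact time was 24 h at 37C, following a 5 h pre-incubation.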

[2] = biological target: Peroxisome proliferator-activated receptor gamma (Homo sapiens) (UniProt P37231); assay: qHTS assay to identify small molecule antagonists of the peroxisome proliferator-activated receptor gamma (PPARg) signaling pathway (AID 743191; calls by dose curve; further: nearly all actives have a fitted effect of over 30% in size; further: potency means the concentration at half of the fitted maximal effect; on ratio activity, negative = inhibition: on the % scale 0 is the no-effect control and ±100 the full control effect); conditions: HEK293H PPARg-UAS-bla, beta-lactamase ratio, antagonist, 17 h
Outline: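 GeneBLAzer PPARg UAS-bla HEK293H cells carrying a UAS-driven beta-lactamase reporter were plated at 3000 cells/well, preincubated 5 h at 37C, then given compound for 17 h at 37C; LiveBLAzer B/G FRET substrate was read after 1 h at room temperature.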

[3] = qHTS assay to identify small molecule antagonists of the peroxisome proliferator-activated receptor gamma (PPARg) signaling pathway - cell viability counter screen (AID 743194); conditions: PPARg-bla HEK293H viability, CellTiter-Glo luminescence, 17 h, co-treated with 50 nM rosiglitazone; activity change, negative = cytotoxicity: at 62.6 µM (top of the series) unless noted; further: potency means the concentration at half of the fitted maximal effect; nearly all actives have a fitted effect of over 55% in size
Outline: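 PPARg-UAS-bla HEK293H cells were plated, rested 5 h at 37 C, then treated with compounds plus rosiglitazone (50 nM final) for 17 h at 37 C; viability was then read by CellTiter-Glo luminescence after 30 min at room temperature.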

[4] = qHTS assay for small molecule agonists of the antioxidant response element (ARE) signaling pathway (AID 743202; active means well fitted activation curve with a large enough effect in the signal ratio in the repeat runs, not every such curve was filed as active; inconclusive means weak or mixed curves, or effect the other way; inactive means no such curve, though single readings can be large or run the other way; the % refers to the signal ratio; further: potency means the concentration at half of the fitted maximal effect); conditions: HepG2 ARE-bla reporter, beta-lactamase FRET, 16 h; activation: at 73.3 µM (top of the series) unless noted
Outline: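 Compounds delivered in DMSO to ARE-bla HepG2 cells (2,000 cells/well, pre-incubated 5 h) and left 16 h at 37 C. LiveBLAzer B/G FRET substrate then added for 2 h at RT before fluorescence reading.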

[5] = qHTS assay to identify small molecule antagonists of the peroxisome proliferator-activated receptor delta (PPARd) signaling pathway - cell viability counter screen (AID 743213); conditions: PPARd-bla HEK293H viability, CellTiter-Glo luminescence, 17 h; viability change, negative = cytotoxic: at 62 µM (top of the series) unless noted; further: nearly all actives have a fitted effect of over 50% in size; further: potency means the concentration at half of the fitted maximal effect
Outline: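 PPARd-bla HEK293H cells were treated with compounds plus agonist L165041 (300 nM final) for 17 h at 37 C. Viability was then read in the same wells by CellTiter-Glo luminescence after 30 min at room temperature.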

[6] = biological target: Peroxisome proliferator-activated receptor delta (Homo sapiens) (UniProt Q03181); assay: qHTS assay to identify small molecule antagonists of the peroxisome proliferator-activated receptor delta (PPARd) signaling pathway (AID 743215; active means well fitted inhibition curve with a large enough effect in the signal ratio in the repeat runs, not every such curve was filed as active; inconclusive means weak or mixed curves, or effect the other way; inactive means no such curve, though single readings can be large or run the other way; the % refers to the signal ratio;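 further: cells stimulated with agonist L165041 at 300 nM final during compound exposure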; further: potency means the concentration at half of the fitted maximal effect; on ratio activity, negative = inhibition: on the % scale 0 is the no-effect control and ±100 the full control effect); conditions: HEK293H PPARd-UAS-bla, beta-lactamase FRET ratio, antagonist, 17 h; ratio activity, negative = inhibition: at 62 µM (top of the series) unless noted
Outline: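 Antagonist-mode beta-lactamase reporter screen: HEK293H cells with UAS-bla under PPARd control, stimulated by 300 nM L165041 (final) alongside test compound for 17 h at 37 C, then FRET fluorescence after 2 h substrate incubation.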

[7] = biological target: Bile acid receptor (Homo sapiens) (UniProt Q96RI1); assay: qHTS assay to identify small molecule antagonists of the farnesoid-X-receptor (FXR) signaling pathway (AID 743217; active means well fitted inhibition curve with a large enough effect in the signal ratio in the repeat runs, not every such curve was filed as active; inconclusive means weak or mixed curves, or effect the other way; inactive means no such curve, though single readings can be large or run the other way; the % refers to the signal ratio; further: potency means the concentration at half of the fitted maximal effect); conditions: HEK293T FXR-UAS-bla, beta-lactamase ratio, CDCA-stimulated, 16 h; activity change, negative = inhibition: at 62.6 µM (top of the series) unless noted
Outline: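 Beta-lactamase reporter under UAS control in HEK 293T cells; compound exposure 16 h at 37 °C in the presence of chenodeoxycholic acid (50 uM final); signal from B/G FRET substrate after 2 h at room temperature.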

[8] = qHTS assay to identify small molecule agonists of the farnesoid-X-receptor (FXR) signaling pathway - cell viability counter screen (AID 743218); conditions: FXR-bla HEK293T viability, CellTiter-Glo luminescence, 16 h; viability change, negative = cytotoxic: at 62.6 µM (top of the series) unless noted; further: potency means the concentration at half of the fitted maximal effect; nearly all actives have a fitted effect of over 45% in size
Outline: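 In GeneBLAzer FXR-UAS-bla HEK 293T cells, compounds act for 16 h at 37 C. Cell viability is then scored in the reporter wells by CellTiter-Glo, 30 min at RT, luminescence.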

[9] = biological target: Bile acid receptor (Homo sapiens) (UniProt Q96RI1); assay: qHTS assay to identify small molecule agonists of the farnesoid-X-receptor (FXR) signaling pathway (AID 743220; active means well fitted activation curve with a large enough effect in the signal ratio in the repeat runs, not every such curve was filed as active; inconclusive means weak or mixed curves, or effect the other way; the % refers to the signal ratio; further: potency means the concentration at half of the fitted maximal effect; on activation: on the % scale 0 is the no-effect control and ±100 the full control effect); conditions: HEK293T FXR-UAS-bla, beta-lactamase FRET ratio, 16 h; activation: at 62.6 µM (top of the series) unless noted
Outline: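 Beta-lactamase reporter under UAS control in GeneBLAzer FXR HEK 293T cells (5000/well) measured with LiveBLAzer FRET substrate after 2 h at room temperature. Compound exposure lasted 16 h at 37C.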

[10] = qHTS assay to identify small molecule antagonists of the farnesoid-X-receptor (FXR) signaling pathway - cell viability counter screen (AID 743221; active means well fitted cell-killing curve with a large enough effect in the repeat runs, not every such curve was filed as active; inconclusive means weak or mixed curves, or effect the other way; inactive means no such curve, though single readings can be large or run the other way; further: potency means the concentration at half of the fitted maximal effect; nearly all actives have a fitted effect of over 50% in size); conditions: FXR-bla HEK293T viability, CellTiter-Glo luminescence, 16 h; activity change, negative = cytotoxicity: at 62.6 µM (top of the series) unless noted
Outline: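 Compound effects on cell number were measured as CellTiter-Glo luminescence in HEK 293T cells expressing FXR-UAS-bla, after 16 h at 37 C with 50 uM CDCA (final).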

[11] = biological target: Peroxisome proliferator-activated receptor gamma (Homo sapiens) (UniProt P37231); assay: qHTS assay to identify small molecule agonists of the peroxisome proliferator-activated receptor gamma (PPARg) signaling pathway (AID 743094; active means well fitted activation curve with a large enough effect in the signal ratio in the repeat runs, not every such curve was filed as active; inconclusive means weak or mixed curves, or effect the other way; inactive means no such curve, though single readings can be large or run the other way; the % refers to the signal ratio; further: potency means the concentration at half of the fitted maximal effect); conditions: HEK293H PPARg-UAS-bla, beta-lactamase FRET ratio, 17 h; activation: at 57 µM (top of the series) unless noted
Outline: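 Stably transfected HEK293H cells (GeneBLAzer PPARg UAS-bla) were incubated with test substances for 17 h at 37C after a 5 h pre-incubation; beta-lactamase activity was then detected by FRET substrate fluorescence.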

[12] = biological target: Vitamin D3 receptor (Homo sapiens) (UniProt P11473); assay: qHTS assay to identify small molecule antagonists of the vitamin D receptor (VDR) signaling pathway (AID 743223; active means well fitted inhibition curve with a large enough effect in the signal ratio in the repeat runs, not every such curve was filed as active; inconclusive means weak or mixed curves, or effect the other way; inactive means no such curve, though single readings can be large or run the other way; the % refers to the signal ratio; further: potency means the concentration at half of the fitted maximal effect); conditions: VDR-UAS-bla HEK293T, beta-lactamase FRET ratio, 16 h; activity change, negative = inhibition: at 61 µM (top of the series) unless noted
Outline: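 Beta-lactamase activity in VDR-bla cells is measured by FRET substrate fluorescence (2 h, room temperature) after cells spend 16 h at 37C with test compound and 3 nM final 1alpha,25-dihydroxyvitamin D3.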

[13] = qHTS assay for small molecule activators of the heat shock response signaling pathway - cell viability counter screen (AID 743209); conditions: HSE-bla HeLa viability, CellTiter-Glo luminescence, 5 h; activity change, negative = cytotoxicity: at 62.6 µM (top of the series) unless noted; further: potency means the concentration at half of the fitted maximal effect; nearly all actives have a fitted effect of over 50% in size
Outline: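 Quantitative HTS format, Tox21 10K library. HeLa cells carrying an HSE-driven beta-lactamase reporter were treated 5 h at 37 C, then assessed for viability by CellTiter-Glo luminescence.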

[14] = biological target: Peroxisome proliferator-activated receptor delta (Homo sapiens) (UniProt Q03181); assay: qHTS assay to identify small molecule agonists of the peroxisome proliferator-activated receptor delta (PPARd) signaling pathway (AID 743212; calls by dose curve; further: potency means the concentration at half of the fitted maximal effect); conditions: HEK293H PPARd-UAS-bla, beta-lactamase FRET ratio, 17 h; activation: at 62.6 µM (top of the series) unless noted
Outline: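 A PPARd-bla HEK293H line with beta-lactamase under an Upstream Activator Sequence is treated with compounds at 37 C. Substrate loading for 2 h at room temperature precedes the fluorescence measurement.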

[15] = biological target: Vitamin D3 receptor (Homo sapiens) (UniProt P11473); assay: qHTS assay to identify small molecule agonists of the vitamin D receptor (VDR) signaling pathway (AID 743222; calls by dose curve; further: potency means the concentration at half of the fitted maximal effect); conditions: HEK293T VDR-UAS-bla, beta-lactamase FRET ratio, 16 h; activation: at 63.5 µM (top of the series) unless noted
Outline: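 Agonist activity measured in VDR-bla reporter cells. Exposure 16 h, 37C, 5% CO2; detection by B/G FRET substrate, 2 h RT.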

[16] = qHTS assay to identify small molecule agonists of the vitamin D receptor (VDR) signaling pathway - cell viability counter screen (AID 743224); conditions: VDR-bla HEK293T viability, CellTiter-Glo luminescence, 16 h; activity change, negative = cytotoxicity: at 62.6 µM (top of the series); further: potency means the concentration at half of the fitted maximal effect; nearly all actives have a fitted effect of over 50% in size
Outline: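 VDR-bla cell line, quantitative HTS format; 16 h compound incubation (37C, 5% CO2); ATP-based CellTiter-Glo luminescence measured in the reporter assay wells.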

[17] = qHTS assay to identify small molecule that activate the aryl hydrocarbon receptor (AhR) signaling pathway - cell viability counter screen (AID 743086);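 further: HepG2 liver cells carrying the AhR DRE luciferase reporter; on the % scale 0 is the no-effect control and ±100 the full control effect; nearly all actives have a fitted effect of over 45% in size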
Outline: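 HepG2-AhR-luc (HG2L7.5c1) cells, 4000/well, were preincubated 5 h at 37C, exposed to compound in qHTS format for 24 hr at 37C, then given CellTiter-Fluor for 30 min; viability was read as fluorescence in the reporter wells.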

[18] = qHTS assay for small molecule activators of the heat shock response signaling pathway (AID 743210; active means well fitted activation curve with a large enough effect in the signal ratio in the repeat runs, with a control signal flat, not every such curve was filed as active; inconclusive means weak or mixed curves; the % refers to the signal ratio;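 further: HeLa cells with beta-lactamase reporter driven by heat shock elements; on the % scale 0 is the no-effect control and ±100 the full control effect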); conditions: HeLa HSE-bla reporter, beta-lactamase ratio, 5 h; activation: at 62.6 µM (top of the series) unless noted
Outline: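 Reporter gene assay: HeLa cells stably bearing an HSE-bla construct, compound treatment 5 h at 37 C, LiveBLAzer substrate 2.5 h at RT, fluorescence intensity.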

[19] = qHTS assay to identify small molecule agonists of the peroxisome proliferator-activated receptor delta (PPARd) signaling pathway - cell viability counter screen (AID 743211); conditions: PPARd-bla HEK293H viability, CellTiter-Glo luminescence, 17 h; activity change, negative = cytotoxicity: at 62.6 µM (top of the series) unless noted; further: nearly all actives have a fitted effect of over 55% in size; further: potency means the concentration at half of the fitted maximal effect
Outline: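 Following 5 h plating at 37 C and 5% CO2, PPARd UAS-bla HEK293H cells took up test compounds for 17 h. Viability was quantified by luminescence 30 min after CellTiter-Glo addition at room temperature.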

[20] = ratio activity, negative = inhibition: at 62.6 µM (top of the series) unless noted
Tags describe the fitted curve by direction and shape or compound fluorescence and quenching.

UniProt P37231, sequence (P37231 whole entry, looked up): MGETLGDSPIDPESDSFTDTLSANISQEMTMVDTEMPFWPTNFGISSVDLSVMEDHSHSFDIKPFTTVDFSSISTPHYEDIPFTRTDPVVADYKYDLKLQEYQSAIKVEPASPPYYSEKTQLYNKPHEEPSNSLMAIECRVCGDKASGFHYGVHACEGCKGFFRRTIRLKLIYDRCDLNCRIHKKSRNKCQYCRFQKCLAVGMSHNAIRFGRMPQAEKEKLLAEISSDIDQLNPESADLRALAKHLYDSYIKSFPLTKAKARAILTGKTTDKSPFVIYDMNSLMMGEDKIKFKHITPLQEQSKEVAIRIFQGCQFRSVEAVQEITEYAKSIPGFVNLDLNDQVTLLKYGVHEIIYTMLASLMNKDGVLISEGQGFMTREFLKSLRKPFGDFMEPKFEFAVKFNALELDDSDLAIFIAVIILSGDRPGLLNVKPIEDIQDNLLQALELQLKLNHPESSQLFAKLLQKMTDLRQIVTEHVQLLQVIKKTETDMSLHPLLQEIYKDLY
UniProt P35869, sequence (P35869 whole entry, looked up): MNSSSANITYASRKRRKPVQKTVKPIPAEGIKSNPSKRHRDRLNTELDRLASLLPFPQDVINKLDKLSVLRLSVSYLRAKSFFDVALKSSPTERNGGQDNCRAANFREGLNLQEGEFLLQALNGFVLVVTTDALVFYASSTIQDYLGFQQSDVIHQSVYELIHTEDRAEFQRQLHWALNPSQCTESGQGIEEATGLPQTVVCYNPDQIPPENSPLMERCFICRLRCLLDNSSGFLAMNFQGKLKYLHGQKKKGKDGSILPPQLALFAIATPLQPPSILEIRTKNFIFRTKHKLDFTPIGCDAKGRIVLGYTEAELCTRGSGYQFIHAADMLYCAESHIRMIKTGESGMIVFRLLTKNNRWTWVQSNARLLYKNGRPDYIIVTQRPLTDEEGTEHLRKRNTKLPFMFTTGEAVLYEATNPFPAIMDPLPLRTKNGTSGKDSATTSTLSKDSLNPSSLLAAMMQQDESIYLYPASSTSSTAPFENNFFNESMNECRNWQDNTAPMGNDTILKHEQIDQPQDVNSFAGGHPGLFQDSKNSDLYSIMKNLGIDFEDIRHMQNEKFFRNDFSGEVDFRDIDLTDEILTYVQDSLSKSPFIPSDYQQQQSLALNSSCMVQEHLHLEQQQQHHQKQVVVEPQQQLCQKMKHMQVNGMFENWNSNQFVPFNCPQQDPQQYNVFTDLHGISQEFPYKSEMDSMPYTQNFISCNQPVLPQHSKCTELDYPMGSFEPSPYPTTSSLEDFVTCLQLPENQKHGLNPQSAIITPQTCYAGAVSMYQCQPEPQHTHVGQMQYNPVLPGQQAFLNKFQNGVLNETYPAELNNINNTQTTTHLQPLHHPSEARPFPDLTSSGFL
UniProt Q03181, sequence (Q03181 whole entry, looked up): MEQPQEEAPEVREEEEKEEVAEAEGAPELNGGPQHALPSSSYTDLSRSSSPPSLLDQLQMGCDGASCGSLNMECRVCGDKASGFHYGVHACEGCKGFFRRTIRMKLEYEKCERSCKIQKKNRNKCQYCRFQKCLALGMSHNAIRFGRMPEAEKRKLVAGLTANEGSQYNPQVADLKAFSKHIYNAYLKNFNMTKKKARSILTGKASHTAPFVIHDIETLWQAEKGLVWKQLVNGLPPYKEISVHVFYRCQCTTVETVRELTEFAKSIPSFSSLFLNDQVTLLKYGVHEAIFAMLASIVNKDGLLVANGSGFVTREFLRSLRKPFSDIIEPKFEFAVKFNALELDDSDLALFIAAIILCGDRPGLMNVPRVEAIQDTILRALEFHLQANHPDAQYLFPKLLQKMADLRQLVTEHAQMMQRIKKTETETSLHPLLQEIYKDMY
UniProt Q96RI1, sequence (Q96RI1 whole entry, looked up): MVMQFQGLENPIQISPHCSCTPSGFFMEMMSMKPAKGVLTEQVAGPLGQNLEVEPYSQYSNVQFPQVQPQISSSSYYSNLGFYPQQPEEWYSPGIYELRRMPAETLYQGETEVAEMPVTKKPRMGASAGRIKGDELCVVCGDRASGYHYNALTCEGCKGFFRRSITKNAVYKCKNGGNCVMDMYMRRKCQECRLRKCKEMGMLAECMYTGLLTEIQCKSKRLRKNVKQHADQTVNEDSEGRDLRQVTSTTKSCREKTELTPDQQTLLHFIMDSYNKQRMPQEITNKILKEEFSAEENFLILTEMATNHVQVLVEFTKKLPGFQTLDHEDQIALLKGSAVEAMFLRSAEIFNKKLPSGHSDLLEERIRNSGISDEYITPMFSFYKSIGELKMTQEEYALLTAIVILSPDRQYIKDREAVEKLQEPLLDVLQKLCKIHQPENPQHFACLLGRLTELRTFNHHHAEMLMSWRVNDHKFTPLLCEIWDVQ
UniProt P11473, sequence (P11473 whole entry, looked up): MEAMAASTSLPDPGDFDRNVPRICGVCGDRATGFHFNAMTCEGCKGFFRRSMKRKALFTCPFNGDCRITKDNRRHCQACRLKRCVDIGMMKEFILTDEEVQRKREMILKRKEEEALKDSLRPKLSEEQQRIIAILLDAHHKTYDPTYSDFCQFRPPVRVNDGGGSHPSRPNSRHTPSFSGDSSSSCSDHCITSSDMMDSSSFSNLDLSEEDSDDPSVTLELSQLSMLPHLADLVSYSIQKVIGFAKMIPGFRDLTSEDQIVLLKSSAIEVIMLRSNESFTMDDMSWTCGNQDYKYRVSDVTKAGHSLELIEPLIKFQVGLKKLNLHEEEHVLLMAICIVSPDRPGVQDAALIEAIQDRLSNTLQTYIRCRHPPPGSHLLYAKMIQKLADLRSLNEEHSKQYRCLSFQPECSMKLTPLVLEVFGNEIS

OCCN1CCN(CCCN2c3ccccc3Sc3ccc(Cl)cc32)CC1
Potency [1]: inconclusive: 12.7 µM [activator, partial curve, poor fit]
ratio activity, negative = inhibition [2, 20]: inconclusive: -31.5%
Potency [3]: inconclusive: 29.8 µM [cytotoxic, single point]
Potency [4]: inconclusive: 33.5 µM
Potency [5]: inconclusive: 26.6 µM [cytotoxic, partial curve, poor fit]
ratio activity, negative = inhibition [6]: inconclusive: -24.4%
Potency [7]: inconclusive: 33.5 µM
Potency [8]: active: 26.6 µM
Potency [9]: inactive
Potency [10]: active: 26.6 µM

CCCOc1ccc2nc(NC(=O)OC)[nH]c2c1
Potency [1]: inconclusive: 2.98 µM [activator, single point]
Potency [11]: inactive
Potency [2, 20]: inactive
Potency [4]: inconclusive: 5.31 µM
Potency [5]: inactive
ratio activity, negative = inhibition [6]: inconclusive: -18.5%
Potency [12]: inconclusive: 0.213 µM [inhibitor, full curve]

CCn1cc(C(=O)O)c(=O)c2cc(F)c(N3CCNC(C)C3)c(F)c21 (centres undefined)
Potency [1]: inactive
ratio activity, negative = inhibition [2, 20]: inconclusive: -3.42%
Potency [4]: inactive

CCOc1ccc2[nH]cc(C(=O)NCc3ccccc3)c(=O)c2n1
Potency [1]: inconclusive: 9.69 µM [activator]
Potency [11]: inactive
Potency [4]: active: 15.4 µM
Potency [5]: inactive
Potency [8]: inconclusive: 24.5 µM [rising, partial curve]
activity change, negative = inhibition [12]: inconclusive: -10%

COc1ccc(C(=O)c2ccccc2)c(O)c1
Potency [1]: inconclusive: 23.7 µM [activator, partial curve, poor fit] and inconclusive: 37.9 µM [activator, partial curve, poor fit] and inconclusive: 27.3 µM [activator, partial curve]
ratio activity, negative = inhibition ([2]; at 62.6 µM (top of the series)): inactive: 0.395%
ratio activity, negative = inhibition [2, 20]: inconclusive: 0.122% and inconclusive: -0.559%
Potency [4]: inactive
Potency [13]: inconclusive: 0.106 µM [cytotoxic, single point]
Potency [5]: inactive
Potency [6]: inconclusive: 11.9 µM [rising, single point]
activity change, negative = inhibition [7]: inconclusive: -7.58%
Potency [9]: inactive

CCCCCCC(O)CCCCCCCCCCC(=O)O (centres undefined)
Potency [1]: inactive
Potency [11]: inconclusive: 24.6 µM [activator] and inconclusive: 24.5 µM [activator, single point]
Potency [3]: inconclusive: 30.9 µM [cytotoxic, partial curve, poor fit]
activation [4]: inconclusive: 28.3% and inconclusive: 36.1%
Potency [14]: active: 21.9 µM
Potency [5]: inconclusive: 21.9 µM [cytotoxic] and inconclusive: 155 nM [cytotoxic, full curve, poor fit]
Potency [7]: active: 34.7 µM
Potency [8]: inconclusive: 30.9 µM [cytotoxic, partial curve]
Potency [9]: inconclusive: 61.7 µM [fluorescent, partial curve, poor fit]
activation [9]: inconclusive: 3.59%
Potency [15]: inconclusive: 30.9 µM [fluorescent, partial curve]
activation [15]: inconclusive: -3.69%
Potency [16]: active: 19.6 µM and active: 11 µM

C[C@]12CC[C@H]3C(=CCc4cc(O)ccc43)[C@@H]1CCC2=O
Potency [1]: inconclusive: 9.69 µM [activator, partial curve, poor fit]
Potency [11]: inactive
Potency [2, 20]: inconclusive: 49 µM [rising, partial curve, poor fit]
activation [4]: inconclusive: 14.7%
Potency [13]: inconclusive: 49 µM [cytotoxic]
Potency [5]: inconclusive: 13.8 µM [cytotoxic, partial curve, poor fit]
Potency [7]: inconclusive: 34.7 µM [rising, partial curve, poor fit]
activity change, negative = inhibition [12]: inconclusive: -24.2%

O=C1OC(c2ccc(O)cc2)(c2ccc(O)cc2)c2ccccc21
Potency [17]: inactive
Potency [11]: inconclusive: 24.5 µM [rising, full curve, poor fit]
activation [11]: inconclusive: -10%
Potency [18]: inactive
Potency [19]: inconclusive: 54.6 µM [cytotoxic, single point] and inactive
activation [15]: inconclusive: -0.124%
Potency [12]: inconclusive: 48.7 µM [rising, partial curve]

Oc1ccc2c(c1)Cc1ccccc1-2
Potency [1]: inconclusive: 48.6 µM [activator, partial curve]
Potency [2, 20]: inconclusive: 17.4 µM [inhibitor, partial curve, poor fit]
Potency [4]: active: 34.4 µM
Potency [15]: inconclusive: 0.389 µM [rising, full curve, poor fit]
Potency [12]: inactive
Potency [16]: inconclusive: 19.5 µM [cytotoxic, partial curve, poor fit]
